Some test systems named below: SF-268 CNS; UACC-257 melanoma; SF-539 CNS; HCT-116 colon; SN12C renal; EKVX NSCLC; IGROV1 ovarian; NCI-H23 lung; MOLT-4 leukemia; MCF7 breast; RPMI-8226 leukemia; OVCAR-4 ovarian; UACC-62 melanoma; CAKI-1 renal; HT29 colon; CCRF-CEM leukemia; K-562 leukemia; LOX IMVI melanoma; NCI-H522 lung; HOP-62 NSCLC; NCI-H226 lung; NCI-H460 lung; OVCAR-5 ovarian; SK-MEL-28 melanoma; SNB-19 CNS; U251 CNS; HL-60(TB) leukemia; SK-OV-3 ovarian; BT-549 breast; M14 melanoma; KM12 colon; SK-MEL-2 melanoma; T-47D breast; OVCAR-8 ovarian.

Common to all, as to assay: NCI-60 cell line screen, 48 h

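Where inhibition never reached the appropriate level, the endpoint shown equals the highest concentration tested. Otherwise, values were interpolated linearly from a five-concentration, 48-hour dose response in 96-well plates. GI50: concentration for 50% inhibition of growth.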 A number of entries come with more than one value. Only these are listed. The source may hold further records. For some assays here: A record mostly stands for its own series of concentrations, which the source does not state; a value can be the end of its range.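 The concentration for full growth arrest is given as TGI.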 For some assays here: The records of an entry are repeated measurements in other runs, samples, wells, individuals or studies. What stands in brackets tells the records apart. A, B and so on number the origins entry by entry.

For `C=C1C(O)C2(O)OCC34C(CC5C(C)=CC(=O)C(O)C5(C)C23)OC(=O)C(OC(=O)C/C=C(\C)CCCCC)C14` (centres undefined), the TGI in the test with SF-268 CNS is 1.4 nM, 42 nM, 56.1 nM; in the test on UACC-257 melanoma, 6.07 nM, 11.5 nM, 62.9 nM; with SF-539 CNS it was < 1 nM and 22.8 nM; in the test on HCT-116 colon it was < 1 nM and 53.4 nM; in the test with SN12C renal it was 11.8 nM, 91.5 nM, 155 nM; in the test on EKVX NSCLC, 92.8 nM, 342 nM, 21.1 nM. Moreover, the TGI was < 1 nM and 19.4 nM with IGROV1 ovarian; 1.88 nM and 147 nM with NCI-H23 lung; 6.23 nM and 619 nM with MOLT-4 leukemia; < 1 nM and 16.3 nM with MCF7 breast; < 1 nM and 19.1 nM in the test with RPMI-8226 leukemia; 1.23 nM and 59.2 nM with OVCAR-4 ovarian. Further, the TGI in the test on UACC-62 melanoma was 1.24 nM and 20.8 nM; in the test with CAKI-1 renal, 254 nM, 3.74 µM, 160 nM; with HT29 colon it was < 1 nM and 269 nM; with CCRF-CEM leukemia it was < 1 nM and 112 nM; with K-562 leukemia, < 1 nM and 192 nM; in the test with LOX IMVI melanoma it was < 1 nM [1 test] and 269 nM [mean of 3 tests]. Also, the TGI is < 1 nM and 16.9 nM with NCI-H522 lung; 1.67 nM and 20.9 nM in the test with HOP-62 NSCLC; < 1 nM, 10.8 nM, 20.6 nM in the test on NCI-H226 lung; < 1 nM and 15 nM with NCI-H460 lung; 11.4 nM, 19 nM, 370 nM in the test on OVCAR-5 ovarian; 1.33 nM and 19.9 nM with SK-MEL-28 melanoma. The TGI in the test on SNB-19 CNS was < 1 nM and 19.6 nM; with U251 CNS, < 1 nM and 18.7 nM; in the test with HL-60(TB) leukemia it was < 1 nM and 86.2 nM; in the test on SK-OV-3 ovarian, 30.3 nM, > 100 µM, 31 nM; in the test on BT-549 breast it was 1.77 nM and 21.9 nM. Moreover, the GI50 with LOX IMVI melanoma is < 1 nM [1 test] and 24 nM [mean of 3 tests]; in the test with SK-OV-3 ovarian it was < 1 nM and 37.1 nM.

With `COc1cc(C2c3cc4c(cc3[C@@H](Nc3ccc(C#N)cc3)C3COC(=O)[C@H]23)OCO4)cc(OC)c1O` (some centres undefined), the TGI is 9.51 µM and > 100 µM in the test with M14 melanoma; 50 µM, 2.67 µM, 4.37 µM with KM12 colon; 3.72 µM, 75 µM, > 100 µM in the test with SN12C renal; 50 µM and 278 nM with MOLT-4 leukemia; 50 µM and 1.28 µM in the test on CCRF-CEM leukemia; 48.1 µM, 3.64 µM, 21.4 µM with SK-MEL-2 melanoma. For the same compound, the TGI in the test on K-562 leukemia is 12.6 µM, 6.36 µM, > 100 µM; in the test with NCI-H460 lung, 2.04 µM, 1.68 µM, > 100 µM; in the test on T-47D breast, 5.26 µM and > 100 µM; in the test with OVCAR-8 ovarian, 5.62 µM, 75 µM, 4.13 µM; with SNB-19 CNS, 24 µM, 7.03 µM, > 100 µM; in the test on U251 CNS, 13.5 µM, 75 µM, 6.12 µM.

As to `CC(C)NC[C@@H](C(=O)N1CCN(c2ncnc3c2[C@H](C)C[C@H]3O)CC1)c1ccc(Cl)cc1`, the TGI in the test on T-47D breast is 1.09 µM [sample A, 1 test] and > 100 µM [sample B, mean of 2 tests].

The values are drawn from PubChem BioAssay (NCI).
